No constants are given. Whether binding was seen depends on the method and setting. Binding seen in cells or lysates may run through a third protein. Some results given as binding are weak or reduced against the parent protein; the word gives no strength. For some assays here: Tags and fused reporters may be left off the sequences shown. Each block holds one molecule with its values, some of them ahead of it.
What was measured:
[1] = molecular target: GST-NHE1 fusion protein (human) (UniProt P19634); assay: pull-down; purified GST-NHE1 as bait; GFP-TMEM106B, its fragments and mutants as prey, Western blot; only the target purified
Flag-NHE1 (human) = Flag-NHE1 (human) (UniProt P19634); assay: co-IP; co-transfected cells (HEK293 named for Fig. 6B, C); anti-Flag or anti-GFP precipitation, control IgG or vector without bait; lysis buffer 20 mM Tris pH 7.5, 150 mM NaCl, 1 mM EDTA, 1% Triton X-100
Flag-TMEM106B (human) = Flag-TMEM106B (human) (UniProt Q9NUM4); assay: as above
GFP-TMEM106B (human) = GFP-TMEM106B (human) (UniProt Q9NUM4); assay: as above
GFP-NHE1 (human) = GFP-NHE1 (human) (UniProt P19634); assay: as above
[2] = molecular target: GST-TMEM106B fusion protein (human) (UniProt Q9NUM4); assay: pull-down; purified GST-TMEM106B as bait; fragments and mutants of GFP-NHE1 as prey, Western blot; only the target purified

By UniProt entry, the sequences of proteins in these tests, tags left out. Where a name states a change or a piece, a line headed by the entry shows the natural chain unless it says otherwise.
UniProt Q9NUM4: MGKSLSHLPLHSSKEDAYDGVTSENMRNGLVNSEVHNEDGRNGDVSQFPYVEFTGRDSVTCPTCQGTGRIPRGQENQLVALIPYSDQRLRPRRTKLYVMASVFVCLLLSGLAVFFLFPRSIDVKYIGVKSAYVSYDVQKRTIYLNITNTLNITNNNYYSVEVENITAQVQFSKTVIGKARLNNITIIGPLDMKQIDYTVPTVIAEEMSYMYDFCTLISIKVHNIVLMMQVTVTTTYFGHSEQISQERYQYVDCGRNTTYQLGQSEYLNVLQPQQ

binding [1]: binds
Molecule: GFP-TMEM106B aa96-117 (from UniProt Q9NUM4 96-117) (domain or fragment)

binding [1]: no binding
Molecule: GFP-TMEM106B aa118-274 (from UniProt Q9NUM4 118-274) (domain or fragment)

binding [1]: binds | binding (Flag-NHE1 (human)): binds
Molecule: GFP-TMEM106B (from UniProt Q9NUM4 1-274)

binding [1]: binds
Molecule: GFP-TMEM106B aa1-117 (from UniProt Q9NUM4 1-117) (domain or fragment)

binding [1]: binds
Molecule: GFP-TMEM106B aa81-117 (from UniProt Q9NUM4 81-117) (domain or fragment)

binding (Flag-TMEM106B (human)): binds
Molecule: GFP-NHE1 (from UniProt P19634-1 1-815)

binding (GFP-TMEM106B (human)): binds
Molecule: Flag-NHE1 (from UniProt P19634-1 1-815)

binding (GFP-NHE1 (human)): binds
Molecule: Flag-TMEM106B (from UniProt Q9NUM4 1-274)

binding [2]: binds
B1: GFP-NHE1 aa501-550 (domain or fragment, UniProt P19634-1 501-550)
chain: PLVDLLAVKKKQETKRSINEEIHTQFLDHLLTGIEDICGHYGHHHWKDKL

binding [2]: binds
B2: GFP-NHE1 aa531-540 (domain or fragment, UniProt P19634-1 531-540)
chain: LTGIEDICGH

From publication PMC12192704
